Test results as given in ChEMBL document CHEMBL4888484, “Replenishing the malaria drug discovery pipeline: Screening and hit evaluation of the MMV Hit Generation Library 1 (HGL1) against asexual blood stage Plasmodium falciparum ,using a nano luciferase reporter read-out” (2022).
Hit rate of the full screen: of about 150,000 compounds, about 540 (0.36%) showed an effect of 50% or more. The list shows a part of the results.

These compounds were tested on Plasmodium falciparum (assay: Primary screen in NF54 nanoGlo assay, in single point, at 2uM, 72h; a lower Z score goes with more inhibition). Details: timepoint 72 hour.
Assay type: functional, Erythrocyte

Compound	% Inhibition	Z score
NC(=O)C[C@H](NCc1cc2ccccc2c(=O)[nH]1)C1CCCCC1	4%	-0.45
C[C@H]1CCCN(c2nc(-c3ccc(N4CCCC4=O)cc3)cs2)C1	-4%	0.39
CC(C)(C)c1ccc([C@@H]2C3=C(O)c4ccccc4C3=Nc3ccccc3S2(=O)=O)cc1	-16%	1.41
O=S(=O)(c1ccc(-c2csc(C3CC3)n2)cc1)N1CCCCC1	-17%	1.76
C[C@@H](C(=O)NCc1ccc(-c2ccc3c(c2)CCO3)cc1)n1cccn1	5%	-0.94
COc1cc(OC)nc(N2C[C@@H]3OC(=O)N(Cc4ccccn4)[C@@H]3C2)n1	-15%	1.75
CN(C)C(=O)Nc1ccc(S(N)(=O)=O)cc1	-12%	1.96
CC(C)CS(=O)(=O)NC(=O)[C@H]1CC[C@H](C(C)C)CC1	0%	0.03
Cc1ccc(C)c(CN2CCC(CNC(=O)[C@H](C(C)C)N3Cc4ccccc4C3=O)CC2)c1	-10%	1.24
CC(C)c1ccc(CN2C(=O)NC3(CCCC3)C2=O)cc1	2%	-0.29
Cc1nc2c(-c3ccncc3)nsc2c(=O)n1CC(=O)NCc1ccc(Cl)cc1	-8%	1.23
Cc1cnc(CCNC(=O)c2ccco2)n1C1CC1	-10%	1.51
Cc1[nH]c(=O)[nH]c1C(=O)N1Cc2sccc2CC1(C)C	35%	-3.95
CC1CCC(CN2CCCCC2C(C)O)CC1 (stereo unspecified)	3%	-0.32
CC(C)[C@@H](NC(=O)Cc1cccc(F)c1)C(=O)OC(C)(C)C	-7%	0.93
CC(NC(=O)c1ccoc1)c1nc(C2CCCO2)no1 (stereo unspecified)	-1%	0.11
Cc1ccc(-n2nc(C(=O)NC3CCN(Cc4ccccc4)CC3)nc2-c2ccoc2)cc1	0%	-0.04
CC(C)N1CCN(C(=O)C2CCCC2)CC1	-2%	0.2
c1ccc2c(-c3nc([C@H]4CCOC4)no3)ccnc2c1	-11%	2.13
Cc1cc2ncc3c(n2n1)CCN(C(=O)Cc1ccccc1Cl)C3	-7%	1.04
Cc1cc([C@H](C)NS(C)(=O)=O)c(C)o1	7%	-0.87
Cc1nc2ccccc2c2nc(=O)c(-c3ccc(F)cc3)nn12	-3%	0.4

Compound	% Inhibition	Z score
CC[C@@H](CO)N(Cc1cccnc1)Cc1cnn2cccnc12	1%	-0.13
Cc1nc2[nH]cc(C(=O)N3CCC(Cc4noc(C)n4)CC3)c(=O)n2n1	12%	-1.55
COc1ccc(CCN2C(=O)O[C@H]3CN(C4Cc5ccccc5C4)C[C@H]32)cc1	3%	-0.39
CC(C)(C#N)Nc1ccc(Br)cc1	-3%	0.44
CCn1ccnc1[C@H]1OCCC[C@@H]1NC(=O)OCCCF	5%	-1.03
c1ccc2c(c1)C[C@H](CN1CCOCC1)O2	-7%	1.36
Cc1cc(C)n(CC(=O)Nc2n[nH]c(Cc3cccc(F)c3)n2)n1	27%	-3.08
O=C(NC1CCCCCC1)[C@H]1CCCN(c2ccnc(-c3cccc(F)c3)n2)C1	-1%	0.25
Cc1ccc(-c2nc([C@H]3CCCN(CC(N)=O)C3)n(CC(F)(F)F)n2)o1	-4%	0.76
Nc1nccnc1C(=O)OCc1csc(-c2ccccc2)n1	-8%	1.02
Cc1cc(CN(C)C(=O)[C@@H]2CC(C(C)C)=NO2)on1	-13%	1.39
NC(=O)Cn1c(=O)n(CCCS(=O)(=O)C2CCCCC2)c(=O)c2ccccc21	-1%	0.21
CCc1ccccc1N(C)S(=O)(=O)c1c(C)sc(C)c1-c1cc(C(F)(F)F)on1	-6%	1.04
COCc1nc(C(=O)N[C@H]2CCc3nccn3C2)cs1	-3%	0.71
Cc1cccc(C(=O)N2CCC3(CC2)OC[C@@H](C(=O)NCc2ccncc2)N3C(=O)c2ccc(F)cc2)c1	-15%	1.5
CC(=O)N(CCN1CCCCC1)[C@H]1CCCN(S(=O)(=O)C(C)C)C1	-8%	1.11
O=C1NC(=O)[C@@]2(CCN(C(=O)NC3CCCCCCC3)C2)N1	-9%	1.73
CN(CC(=O)NC1CCCCCC1)Cc1ncon1	-6%	1.07
CCNS(=O)(=O)c1cc(C(=O)N2CCCC2)cs1	-9%	0.93
O=C(NCCC1=CCCCC1)c1ccc2ccccc2n1	-15%	2.78
CCOCc1nnc2n1CCN(C(=O)OC(C)(C)C)C2	-1%	0.19
